Among all 310,000 compounds or so, about 2,200 (0.71%) showed an effect of 50% or more. The effect is printed as a negative number. The list shows a part of the results.
molecular target: human ether-à-go-go-related gene (hERG) potassium channel (human, UniProt Q12809); assay: primary screen, population patch clamp on CHO cells stably expressing hERG
Sequence (Q12809 whole entry, looked up): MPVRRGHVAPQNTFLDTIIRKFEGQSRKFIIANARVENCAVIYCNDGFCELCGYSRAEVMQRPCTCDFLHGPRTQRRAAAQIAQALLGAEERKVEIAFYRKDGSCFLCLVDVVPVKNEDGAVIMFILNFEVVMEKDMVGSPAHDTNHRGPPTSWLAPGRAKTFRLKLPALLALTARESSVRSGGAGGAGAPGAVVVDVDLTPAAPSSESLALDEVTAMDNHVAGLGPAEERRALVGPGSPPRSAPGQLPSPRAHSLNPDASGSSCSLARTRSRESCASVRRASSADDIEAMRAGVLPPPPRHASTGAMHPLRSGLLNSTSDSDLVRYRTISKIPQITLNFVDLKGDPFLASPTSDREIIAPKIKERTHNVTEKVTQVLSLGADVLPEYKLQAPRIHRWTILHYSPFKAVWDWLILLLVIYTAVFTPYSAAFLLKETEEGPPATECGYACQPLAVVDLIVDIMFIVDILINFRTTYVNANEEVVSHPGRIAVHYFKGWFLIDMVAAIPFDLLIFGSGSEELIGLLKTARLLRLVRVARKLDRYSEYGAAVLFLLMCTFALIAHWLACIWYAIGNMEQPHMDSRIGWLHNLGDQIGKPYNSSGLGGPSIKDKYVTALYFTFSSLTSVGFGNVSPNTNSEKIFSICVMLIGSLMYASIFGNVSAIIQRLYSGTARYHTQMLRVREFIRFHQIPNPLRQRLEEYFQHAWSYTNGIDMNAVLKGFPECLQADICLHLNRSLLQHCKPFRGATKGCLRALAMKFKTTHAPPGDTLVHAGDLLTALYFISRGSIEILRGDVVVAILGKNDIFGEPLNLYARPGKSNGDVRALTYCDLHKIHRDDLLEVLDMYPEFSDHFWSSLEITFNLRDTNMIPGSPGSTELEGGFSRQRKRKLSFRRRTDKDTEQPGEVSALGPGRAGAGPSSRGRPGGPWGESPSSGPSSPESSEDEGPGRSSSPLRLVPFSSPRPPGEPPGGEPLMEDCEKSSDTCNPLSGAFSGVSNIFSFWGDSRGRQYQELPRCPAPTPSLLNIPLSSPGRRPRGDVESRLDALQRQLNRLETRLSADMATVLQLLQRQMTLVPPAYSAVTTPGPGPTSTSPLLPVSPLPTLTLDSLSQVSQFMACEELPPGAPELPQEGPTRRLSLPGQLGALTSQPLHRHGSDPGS

Structure (SMILES)	hERG current change (%, negative = inhibition) at 1uM [%]
C#Cc1ccc(C(=O)Nc2cc(C(N)=O)ccc2N2CCOCC2)cc1	-9.42
CCn1cc(C(=O)OCC(=O)Nc2cccc(S(=O)(=O)N3CCOCC3)c2)c(=O)c2ccc(C)nc21	19.1
CCN(Cc1nc2ccccc2c(=O)[nH]1)Cc1nc2ccsc2c(=O)[nH]1	8.31
CCCCC(=O)NNC(=S)NC(=O)c1ccc(C)cc1	18.1
CN(C(=O)c1cnc(N2CCN(c3ncccn3)CC2)c2ccccc12)c1ccc(Cl)cc1	11.7
CCN(CCCCCCN)c1ccc2c(=O)[nH][nH]c(=O)c2c1	9.15
O=C(NCSc1ccncn1)c1ccccc1	13.1
COc1ccc(-n2nc([N+](=O)[O-])c(=NCCc3ccc(Cl)cc3)n2O)cc1	11.1
C#CCOc1ccccc1C(N)=O	14
O=C(NC1CCCCCC1)c1ccccc1-c1ccccc1	-3.35
COCc1cc(=O)[nH]c2cc(NC(=O)c3cccc(OC)c3)c(C)cc12	15.7
CCCCC(=O)Nc1ccc(NC(=O)C2CC2)cn1	13.6
CN(CC(=O)NCCN1CCN(Cc2ccccc2)CC1)S(=O)(=O)c1cccc2nsnc12	2.04
CCOC(=O)C(C)(C)Sc1nc2c(cnn2-c2ccc(C)cc2)c(=O)[nH]1	5
O=C(NC(O)C(=O)c1ccc(F)cc1)c1ccc(F)cc1 (centres unmarked)	9.08
COc1cccc(CNC(=O)C2CCN(C(=O)N(C)C)CC2)c1	10.9
CCO/N=C(/C)c1c(O)c(C)c(-c2ccccc2)n(-c2ccccc2)c1=O	12.9
COc1ccc(N2CCN(C(=S)Nc3ccc(C)cc3)CC2)cc1	10.4
Cc1ccc(/C=C/C(=O)NC2CCCCCCC2)o1	3.27
CCOc1cc(/C=N/O)cc(Br)c1OCC(=O)NCc1ccccc1	13
Cc1oc(-c2ccc(Cl)cc2)cc1-c1nn2c(-c3ccoc3C)nnc2s1	2.41
CCOC(=O)C(C)Sc1nnc(NC(=O)c2ccc3c(c2)OCO3)s1 (centres unmarked)	7.77
CCOC(=O)C1=C(C)N(CCCC(=O)O)C(=O)NC1c1cc2ccccc2c2ccccc12 (centres unmarked)	5.67

Structure (SMILES)	hERG current change (%, negative = inhibition) at 1uM [%]
CC(C)NC(=O)c1ccc2c3n(nc2c1)-c1ccc(Cl)cc1CO3	19.3
COc1ccc(S(=O)(=O)n2oc(=O)cc2-c2ccccc2)cc1OC	2.75
Cc1ccc(/C(O)=C2/C(=O)C(=O)N(c3ccccn3)C2c2ccc([N+](=O)[O-])cc2)cc1 (centres unmarked)	5.28
Br.CCCCCCn1ccc(=N)cc1	7.68
COc1ccc(Nc2nc(-c3cccnc3)cs2)c(OC)c1	7.06
Cc1noc(C)c1S(=O)(=O)NCc1ccc(CN(C)C)cc1.Cl	11
O=C(Nc1ccc2c(c1)OCCO2)c1cc(-n2cnnc2)ccc1Cl	3.58
COc1ccc(C(=O)NCCc2nnc(SCC(=O)Nc3ccccc3)n2C)cc1	8.61
Cn1c(=O)n(C)c2cc(S(=O)(=O)Nc3ccccc3O)ccc21	-5.52
CC1Sc2ccc(S(=O)(=O)N3CCC(C(N)=O)CC3)cc2NC1=O (centres unmarked)	20.7
Cc1cc(C(=O)Nc2nc3ccc(S(C)(=O)=O)cc3s2)c(C)o1	2.88
Cc1ccccc1C(=O)Nc1ccccc1N1CCCCC1	17.4
CCCN1C(=O)/C(=C/c2ccc(C)o2)SC1=Nc1ccc(OCC)cc1	6.08
COCCOC(=O)c1c(C)oc2ccc(OC(=O)COc3c(F)c(F)c(F)c(F)c3F)cc12	4.77
C=C(C)C(=O)Nc1cccc(C2=NOC3(C2)C[C@@H](C(N)=O)N(C(=O)C(=C)C)C3)c1 (some centres unmarked)	11.1
OCCC1CN(Cc2ccc(F)cc2Cl)CCN1CCc1ccccc1 (centres unmarked)	-34.2
CCc1cccc2c(C(=O)CN3C(=O)NC4(CCc5ccccc54)C3=O)c[nH]c12 (centres unmarked)	15
COc1ccc(OC)c(N(CC(=O)NC2CCCC2)S(=O)(=O)c2ccc(OC)c(OC)c2)c1	-8.06
O=C(/C=C/c1ccc(S(=O)(=O)N2CCOCC2)cc1)NCc1ccc(Cl)cc1	-21.5
Cc1c(C)c2ccc(OC(C)C(=O)NCCN3CCOCC3)c(C)c2oc1=O (centres unmarked)	14.8
Cc1cccc(-c2noc(-c3ccccc3C(=O)NCc3ccco3)n2)c1	1.35
Cc1c(C)c2cc(Cl)c(O)c(CN(C)C)c2oc1=O	15.4
O=C(/C=C/c1ccccc1)N/C(=C\c1ccco1)C(=O)O	14.2

Structure (SMILES)	hERG current change (%, negative = inhibition) at 1uM [%]
Cc1ccc2cc(C3CC(c4ccco4)=NN3C(=O)CCCC(=O)O)c(Cl)nc2c1 (centres unmarked)	2.86
Cc1ccc(C(=O)NCC(=O)OCC(=O)c2ccc3c(c2)NC(=O)CO3)cc1	-11
Clc1ccc(COc2ccccn2)cc1Cl	3.38
O=C(NC1CCCc2ccccc21)C1CCCO1 (centres unmarked)	10.6
COc1cccc(C(C(=O)NCC2CCCO2)N(C(=O)Cn2nnc3ccccc32)c2ccccc2C(C)=O)c1OC (centres unmarked)	15.6
CCOC(=O)C1(CC2CC2)CCN(Cc2cnc(N(C)C)s2)CC1	3.01
Cc1sc2nc(C(C)C)nc(SCC(=O)N3CCN(C(=O)c4ccco4)CC3)c2c1C	-41.5
Cn1cc(-c2ccccc2)cc(C#N)c1=O	10.2
COc1ccccc1NC(=O)CSc1nccc(-c2ccco2)n1	10.2
O=C(Nc1ccc(F)cc1F)C1(c2cccs2)CCOCC1	12.7
COc1ccc(/C=C2/C(=O)N(c3ccccc3)N=C2C)cc1	16
COC(=O)CN(C(=O)CSc1nnc(-c2cccc(OC)c2)o1)c1ccc(OC)cc1	0.674
Br.CC1CC(C)CN(CC(=O)c2ccc(OC(F)F)cc2)C1 (centres unmarked)	-96.1
CCOC(=O)c1sc(NC(=O)CCN2CC(C)OC(C)C2)c(C(=O)OCC)c1C.O=C(O)C(=O)O (centres unmarked)	14.5
CC(C)c1onc(C(=O)N(C)Cc2ccccc2)c1[N+](=O)[O-]	-0.336
Cc1ccc(NC(=O)Cc2n[nH]c(=S)n2C)cc1	11.5
COCC1CCCC1OS(N)(=O)=O (centres unmarked)	1.23
Cc1ccc(S(=O)(=O)N2CCCCC2)c(C)c1NS(C)(=O)=O	10.6
Cc1ncc([N+](=O)[O-])n1Cc1ccc(Cl)cc1	1.88
CC1CCN(C(=O)COc2cccc3c2CCN(C)C3=O)CC1	8.37
O=C(CCn1c(=O)oc2ccccc21)N1CCCCCC1	5.22
CN(CC(=O)Nc1cccc(F)c1)C(=O)CN1C(=O)C2CC=CCC2C1=O (centres unmarked)	-4.22
N#CCCn1nc(-c2ccc(Cl)cc2)cc1Nc1ccccc1NC(=O)C(F)(F)F	9.25

Structure (SMILES)	hERG current change (%, negative = inhibition) at 1uM [%]
CCCn1ncc(CN2CCN(Cc3ccc(C)o3)C(CCO)C2)c1C (centres unmarked)	4.23
CC(C)(C)NCC(O)CON=C1c2ccccc2-c2ccccc21 (centres unmarked)	9.88
Cc1cc(C(=O)N/N=C2\CCCC(=O)C2)c2ccccc2n1	0.574
COc1ccc(C(C)(C)C)cc1NC(=O)c1cccc(S(=O)(=O)N2CCN(C(C)=O)CC2)c1	13.5
O=C1CSC(c2ccccn2)N1c1cccc(Cl)c1 (centres unmarked)	9.69
COc1cccc(OC)c1C(=O)Nc1ccc2c(c1)OCCO2	8.4
COc1ccc(-n2c(SCC(=O)c3c(N)n(C)c(=O)n(C)c3=O)nc3ccccc32)cc1	12
CC(=O)Nc1ccc(Nc2ccc([N+](=O)[O-])cn2)cc1	3.5
CC(=O)Nc1cccc(/C(C)=N/NC(=O)c2cc(-c3ccncc3)nc3ccccc23)c1	5.58
COCCNC(=O)c1cn(C)c2ccccc2c1=O	17.9
CC1(C)CC(=O)c2cc(C(=O)NC3CCSC3=O)c(=O)n(-c3ccc(Cl)cc3)c2C1 (centres unmarked)	7.79
O=C(c1ccco1)N1CCN(C(c2ccccc2F)c2nnnn2Cc2cccs2)CC1 (centres unmarked)	4.73
CNS(=O)(=O)c1ccc2nc(NC(=O)/C=C/c3ccco3)sc2c1	8.11
CCOC(=O)C1(Cc2ccc(OC)cc2)CCN(C(=O)C2CCCO2)CC1 (centres unmarked)	5
CSc1nc(C)c2cc(C)oc2n1	6.8
O=C(O)C1CC(=O)N(C2CCCCCC2)C1 (centres unmarked)	7.79
CC1(C)CC(=O)C2=C(C1)c1c(ccc3ccccc13)NC2c1cc([N+](=O)[O-])cc([N+](=O)[O-])c1O (centres unmarked)	13.8
CCOCCOC(=O)C1=C(C)NC(=O)NC1c1cc2c(cc1Br)OCO2 (centres unmarked)	-37.4
CC(=O)c1cccc(NC(=O)N2CCCC2C(=O)NCc2ccc3c(c2)OCO3)c1 (centres unmarked)	17.7
COc1ccc(C(=O)N/C(=C\c2cccc([N+](=O)[O-])c2)C(=O)Nc2cccc(C(=O)O)c2)cc1	4.12
